Measured values as given in publication PMC9626503.
Substitutions are numbered along the chain they refer to. No constants are given. Whether binding was seen depends on the method and setting. For part of these data: In cells and extracts the contact can be indirect. Some entries that bind do so weakly or less than the wild type. Tags and fused reporters may be left off the sequences shown. Values belong to the substance of their own block, whether it stands above or below them.

Amino acid sequences for entries named in this document (tags omitted). A change or cut given only in a name is not applied to a line headed by its entry.
UniProt Q15291: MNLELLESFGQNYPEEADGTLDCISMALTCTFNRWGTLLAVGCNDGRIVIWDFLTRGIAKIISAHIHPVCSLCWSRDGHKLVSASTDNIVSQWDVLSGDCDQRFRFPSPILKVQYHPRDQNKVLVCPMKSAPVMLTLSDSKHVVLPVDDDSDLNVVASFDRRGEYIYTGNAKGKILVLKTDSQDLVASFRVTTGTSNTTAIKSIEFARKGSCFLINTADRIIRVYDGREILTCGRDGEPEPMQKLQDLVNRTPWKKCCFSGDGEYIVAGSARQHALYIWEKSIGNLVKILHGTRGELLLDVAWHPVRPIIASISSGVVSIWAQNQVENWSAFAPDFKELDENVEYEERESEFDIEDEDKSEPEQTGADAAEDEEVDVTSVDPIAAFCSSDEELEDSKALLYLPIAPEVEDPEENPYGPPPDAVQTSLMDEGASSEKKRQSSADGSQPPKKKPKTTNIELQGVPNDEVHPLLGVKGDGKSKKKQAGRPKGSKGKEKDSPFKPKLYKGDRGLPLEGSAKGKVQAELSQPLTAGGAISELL
UniProt Q9UBL3: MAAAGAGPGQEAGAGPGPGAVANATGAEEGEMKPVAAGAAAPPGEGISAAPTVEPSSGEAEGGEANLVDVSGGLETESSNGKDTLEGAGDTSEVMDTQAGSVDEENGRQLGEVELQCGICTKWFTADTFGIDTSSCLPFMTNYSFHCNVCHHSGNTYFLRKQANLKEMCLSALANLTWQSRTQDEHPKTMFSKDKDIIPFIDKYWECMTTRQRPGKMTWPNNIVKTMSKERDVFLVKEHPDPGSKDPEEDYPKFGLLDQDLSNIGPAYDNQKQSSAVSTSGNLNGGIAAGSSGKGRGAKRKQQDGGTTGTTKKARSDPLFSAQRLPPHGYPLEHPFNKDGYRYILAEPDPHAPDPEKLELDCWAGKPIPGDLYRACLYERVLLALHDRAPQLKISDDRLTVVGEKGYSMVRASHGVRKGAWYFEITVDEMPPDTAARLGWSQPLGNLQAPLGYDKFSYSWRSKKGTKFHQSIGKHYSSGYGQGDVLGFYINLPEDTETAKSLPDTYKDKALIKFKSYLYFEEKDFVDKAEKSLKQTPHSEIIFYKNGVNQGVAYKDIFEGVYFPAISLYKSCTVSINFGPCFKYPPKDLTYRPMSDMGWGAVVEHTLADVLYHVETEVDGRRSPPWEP

What was measured:
[1] = molecular target: T1, FOXQ1 wild type with C-terminal V5-epitope tag (human) (UniProt Q9C009); experiment: co-IP; WT and point-mutant FOXQ1-V5 transfected into HEK293 cells; anti-V5 IP; blot for RbBP5
T1 sequence: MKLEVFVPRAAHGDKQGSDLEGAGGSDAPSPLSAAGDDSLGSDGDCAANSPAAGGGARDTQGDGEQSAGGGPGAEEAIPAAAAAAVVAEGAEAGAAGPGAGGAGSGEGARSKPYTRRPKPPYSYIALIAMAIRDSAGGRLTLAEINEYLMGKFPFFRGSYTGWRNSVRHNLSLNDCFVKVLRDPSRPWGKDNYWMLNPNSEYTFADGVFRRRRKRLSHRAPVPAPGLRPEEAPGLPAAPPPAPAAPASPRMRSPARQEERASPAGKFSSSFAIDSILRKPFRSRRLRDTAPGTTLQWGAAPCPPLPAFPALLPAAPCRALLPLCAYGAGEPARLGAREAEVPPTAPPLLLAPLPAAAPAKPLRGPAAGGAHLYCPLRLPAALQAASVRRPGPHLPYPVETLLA

[2] = molecular target: T2, FOXQ1 A126S with C-terminal V5 tag (human) (UniProt Q9C009); experiment: as above
T2 sequence: T1 sequence with A126S

[3] = molecular target: T3, FOXQ1 G137E with C-terminal V5 tag (human) (UniProt Q9C009); experiment: as above
T3 sequence: T1 sequence with G137E

[4] = molecular target: T4, FOXQ1 G138E with C-terminal V5 tag (human) (UniProt Q9C009); experiment: as above
T4 sequence: T1 sequence with G138E

[5] = molecular target: T5, FOXQ1 A136P with C-terminal V5 tag (human) (UniProt Q9C009); experiment: as above
T5 sequence: T1 sequence with A136P

[6] = molecular target: T6, FLAG-FOXQ1 N-terminal fragment (1-142) (human) (UniProt Q9C009); experiment: co-IP; FLAG-tagged FOXQ1 full-length or fragments transfected into HEK293 cells; IP with anti-FLAG resin; blot for endogenous RbBP5
T6 sequence: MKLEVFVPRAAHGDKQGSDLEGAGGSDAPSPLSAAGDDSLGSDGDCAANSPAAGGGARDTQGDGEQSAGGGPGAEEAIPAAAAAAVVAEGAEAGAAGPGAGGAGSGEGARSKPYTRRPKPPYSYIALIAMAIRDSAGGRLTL

[7] = molecular target: T7, FLAG-FOXQ1 N-terminal 75-142 (human) (UniProt Q9C009); experiment: as above
T7 sequence: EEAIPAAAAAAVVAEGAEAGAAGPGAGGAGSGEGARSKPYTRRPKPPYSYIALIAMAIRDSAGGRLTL

[8] = molecular target: T8, FLAG-FOXQ1 C-terminal fragment (204-403) (human) (UniProt Q9C009); experiment: as above
T8 sequence: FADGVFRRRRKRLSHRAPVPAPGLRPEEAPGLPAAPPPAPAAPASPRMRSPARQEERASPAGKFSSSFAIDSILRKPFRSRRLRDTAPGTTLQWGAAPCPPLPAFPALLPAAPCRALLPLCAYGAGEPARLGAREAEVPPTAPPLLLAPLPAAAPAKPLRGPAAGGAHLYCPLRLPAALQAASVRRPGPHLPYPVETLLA

[9] = molecular target: T9, FLAG-FOXQ1 Forkhead box fragment (105-227) (human) (UniProt Q9C009); experiment: as above
T9 sequence: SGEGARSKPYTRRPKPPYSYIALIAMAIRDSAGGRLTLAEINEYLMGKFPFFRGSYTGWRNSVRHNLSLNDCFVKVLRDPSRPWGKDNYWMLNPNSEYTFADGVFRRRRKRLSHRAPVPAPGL

[10] = molecular target: T10, FLAG-FOXQ1 (full-length) (human) (UniProt Q9C009); experiment: as above
T10 sequence: T1 sequence

[11] = molecular target: T11, FLAG-FOXQ1 C-terminal residues 142-403 (human) (UniProt Q9C009); experiment: as above
T11 sequence: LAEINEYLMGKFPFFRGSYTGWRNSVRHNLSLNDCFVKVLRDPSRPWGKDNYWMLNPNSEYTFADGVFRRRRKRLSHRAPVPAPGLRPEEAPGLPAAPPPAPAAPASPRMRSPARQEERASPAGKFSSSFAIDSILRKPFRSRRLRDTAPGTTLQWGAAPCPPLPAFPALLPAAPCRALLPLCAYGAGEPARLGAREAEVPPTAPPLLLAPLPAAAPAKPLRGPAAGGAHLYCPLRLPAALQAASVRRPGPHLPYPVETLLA

[12] = molecular target: T1, FOXQ1 wild type with C-terminal V5-epitope tag (human); experiment: co-IP; anti-V5 IP of FOXQ1-V5 from stable HMLE/FOXQ1 lysate; blots for endogenous MLL core complex proteins; Co-IP buffer 20 mM Tris-HCl, 140 mM NaCl, 10% glycerol, 1% NP-40, 2 mM EDTA, 4 °C overnight
GST-FOXQ1 (human) = molecular target: T12, GST-FOXQ1 (human) (UniProt Q9C009); experiment: pull-down; GST-FOXQ1 or GST alone on glutathione-agarose beads, incubated with 100 μg of one purified MLL core complex protein in BC100 with 0.1% BSA overnight at 4 °C; washed with BC100 with 1% Triton-X; western blot; both purified
T12 sequence: T1 sequence

[13] = molecular target: T10, FLAG-FOXQ1 (full-length) (human); experiment: co-IP; RbBP5 deletion constructs co-expressed individually with FLAG-FOXQ1 in HEK293 cells (Supplementary Fig. 4e, f); which partner was precipitated is not told

binding [1]: binds
binding [2]: binds
binding [3]: binds
binding [4]: binds
binding [5]: binds
binding [6]: binds
binding [7]: binds
binding [8]: no binding
binding [9]: binds
binding [10]: binds
binding [11]: no binding
binding [12]: binds
Substance: endogenous RbBP5 (from UniProt Q15291 1-538)

binding (GST-FOXQ1 (human)): binds
Substance: recombinant RbBP5 (from UniProt Q15291 1-538)

binding [13]: binds
Substance: RbBP5 C-terminal region (330-538), MYC-tagged (from UniProt Q15291 330-538) (domain or fragment)

Substance: recombinant ASH2L (from UniProt Q9UBL3 1-628)
binding (GST-FOXQ1 (human)): no binding (tested: 100 μg of purified protein)
